Test results taken from ChEMBL document CHEMBL1157539, “Thousands of chemical starting points for antimalarial lead identification” (Nature, 2010).
Over roughly 13,000 compounds, “IFI” has its median near 4; the highest 2% begin near 17. Some of the results follow.

assay: GSK_TCMDC: Inhibition Frequency Index (IFI). The number of non-kinase HTS assays where a compound showed > 50 % inhibition, expressed as a percentage of the number of such assays in which the compound was tested (-0 is zero); assay type: functional

First: O=C(Nc1cccc(-c2cccc(-c3nc4cc(F)ccc4[nH]3)c2)c1)c1csnn1
Second: O=C(NCc1cccc(F)c1)Nc1cccc(-c2ccc(-c3nc4cc(F)ccc4[nH]3)cc2)c1
The IFI of the first is higher: 2.7% for the first, 1.01% for the second.

Going from Cc1cccc2nc(-c3ccc(-c4ccc(NC(=O)Nc5cccc(C#N)c5)cc4)cc3)[nH]c12 to Cc1cccc2nc(-c3ccc(-c4cccc(CNCCc5ccncc5)c4)cc3)[nH]c12, the IFI rises from -0% to 7%.

Going from CCCCC(=O)NC(c1cccs1)c1cc(Cl)c2cccnc2c1O (stereo unspecified) to O=C(NC(c1ccc(Cl)cc1)c1ccc2cccnc2c1O)c1ccccc1 (stereo unspecified), the IFI falls from 4.96% to 3.52%.

First: O=C(Nc1ccc(CN2CCN(S(=O)(=O)c3cccc(Cl)c3)CC2)cc1)c1cccs1
Second: O=C(Nc1ccc(N2CCCN(Cc3cccc(F)c3)CC2)cc1)c1cccs1
The IFI of the first is lower: 3.7% for the first, 5.71% for the second.

First: NS(=O)(=O)c1cccc(N/C=C2\C(=O)Nc3ccc(S(=O)(=O)Cc4c(Cl)cccc4Cl)cc32)c1
Second: Cc1ccc(S(=O)(=O)NC2=NC(=N)N(OCc3ccc(Cl)c(Cl)c3)C(C)(C)N2)cc1
The IFI of the first is higher: 2.27% for the first, -0% for the second.

Going from CCOC(=O)C(C(=O)OCC)c1nc(C)ns1 to CCCCCCCCc1c(C)nc(C)c(Br)c1O, the IFI rises from 0.74% to 1.44%.

First: O=C(Nc1cn(-c2ccc(OCc3cccc(F)c3)c(Cl)c2)c2ncncc12)c1ccncc1
Second: CS(=O)(=O)CCOCc1ccc(-c2ccc3ncnc(Nc4ccc(OCc5cccc(F)c5)c(Cl)c4)c3c2)o1
The IFI of the first is lower: 0.72% for the first, 3.6% for the second.

First: Cc1cc(C)cc(OCC(O)CN(Cc2cc(Cl)cc(Cl)c2)C(=O)Nc2ccccc2Cl)c1 (stereo unspecified)
Second: O=c1cc(NCCCNCc2cc(Cl)cc(Cl)c2OCc2ccc(Cl)cc2)[nH]c2ccccc12
The IFI of the first is lower: 1.41% for the first, 6.34% for the second.

Going from c1cc(Nc2nc(-c3ccc(-c4csc(Nc5ccncc5)n4)cc3)cs2)ccn1 to COc1cccc(-c2nc(Nc3ccncc3)c3ncn(C)c3n2)c1, the IFI falls from 9.66% to 3.65%.

First: CNCc1cccc2nc(-c3csc(Cc4cc(Cl)ccc4OCC(C)C)n3)[nH]c12
Second: Nc1nc(N)c2c(CCc3ccc(Cl)c(Cl)c3)cccc2n1
The IFI of the first is lower: 5.08% for the first, 10.8% for the second.

Compared with Nc1ncc(-c2ccccc2)cc1/C=C/c1cccnc1, O=C(C=Cc1cccs1)Nc1ccc(-c2nc3ccccc3[nH]2)cc1 is lower in IFI: 2.14% for the first, 2.07% for the second.

Compared with CCCc1cc(Cc2cnc(N)nc2N)ccc1OCCCCCC(=O)O, Cc1c(Cc2ccccc2Br)cnc2nc(N)nc(N)c12 is higher in IFI: 0% for the first, 3.55% for the second.

Compared with COc1ccc(NC(=O)[C@H](Cc2ccccc2)Nc2cc(C)nc(NCc3ccccc3C)n2)cc1, O=C(Nc1ccc(CCNCc2ccccc2)cc1)Nc1ccc(OC(F)(F)F)cc1 is lower in IFI: 4.65% for the first, 0.72% for the second.

First: CCN1CCN(c2cc(C)c3cc(NC(=O)c4ccc([N+](=O)[O-])c(C)c4)ccc3n2)CC1
Second: COc1ccc(Cl)cc1N1CCN(CCCNC(=O)c2ccc(-c3nc4cc(Cl)c(C)cc4[nH]3)s2)CC1
The IFI of the first is higher: 4.05% for the first, 1.46% for the second.

Compared with CCNc1c2ccc(Cl)cc2nc2ccc(OC)cc12, COc1ccc2c(O)c(Br)c(C)nc2c1 is lower in IFI: 2.11% for the first, -0% for the second.

Compared with Cc1cc(NC(=O)c2cccs2)ccc1OC1CCN(Cc2ccc(C#N)cc2)C1 (stereo unspecified), N#Cc1ccc(CN2CCC(Oc3ccc(NC(=O)c4cccs4)cc3Cl)CC2)cc1 is higher in IFI: 5.97% for the first, 13.4% for the second.

Going from COc1cccc(-c2cccc(NC(=O)C3CCN(Cc4ccc(O)cc4)CC3)c2)c1 to COc1ccc2nccc([C@@H](O)CN3CCC(NCCOc4cccc(C(F)(F)F)c4)CC3)c2c1, the IFI falls from 2.38% to 2.19%.

Going from CCCCN(CCCC)CCC(O)C(=Cc1ccc(Cl)cc1Cl)c1ccc(C(F)(F)F)cc1N (stereo unspecified) to CC(C)CCNCC(O)Cn1c2ccc(Cl)cc2c2cc(Cl)ccc21 (stereo unspecified), the IFI rises from 0% to 14.5%.

Going from COc1cccc(CN2CCN(C(c3ccccc3)c3ccccc3)CC2)c1O to Cc1ccccc1OCCCN1CCN(CC(c2ccc(F)cc2)N2CCN(C(C)C)CC2)CC1 (stereo unspecified), the IFI rises from 5.56% to 9.23%.

Going from O=C(CC1SC(N2N=C(c3cccs3)CC2c2ccccc2)=NC1=O)Nc1ccc(Cl)cc1 (stereo unspecified) to O=c1c2sc(-c3ccc(Cl)cc3)cc2ncn1Cc1ccc(OCCN2CCCC2)c2ccccc12, the IFI rises from -0% to 6.34%.

First: Cc1ccc(O)c(-c2cc(C(=O)Nc3ccc(S(=O)(=O)N4CCCCC4)cc3)[nH]n2)c1
Second: COc1ccc(S(=O)(=O)N2CCC(NS(=O)(=O)c3ccc(F)cc3)CC2)cc1
The IFI of the first is higher: 9.18% for the first, 0% for the second.

First: CC(=O)Nc1cc(C(=O)Nc2cccc(-c3cccc(-c4nc5cc(C(F)(F)F)ccc5[nH]4)c3)c2)ccc1C
Second: CS(=O)(=O)c1ccc(CNCc2cccc(-c3cccc(-c4nc5cc(C(F)(F)F)ccc5[nH]4)c3)c2)cc1
The IFI of the first is higher: 5.08% for the first, 1.92% for the second.

First: COc1cc2c(Nc3cccc(NC(=O)c4ccccc4)c3)ncnc2cc1OCCCN1CCOCC1
Second: Cc1cc(OCCCN2CCC(NS(=O)(=O)c3cc(Br)c(Cl)s3)CC2)c2ccccc2n1
The IFI of the first is lower: 1.54% for the first, 5.17% for the second.

Compared with CCCCCn1c(Sc2ccc(C#N)c([N+](=O)[O-])c2)nnc1-c1ccccc1, CCCCCCSc1nnc(COc2cccc3ccccc23)n1-c1ccc(OC)cc1 is lower in IFI: 5.67% for the first, 5.43% for the second.

First: N#CN1CC[C@H](CS(=O)(=O)c2cccc(Br)c2)C1
Second: O=S(=O)(NC1CCN(c2ccnc3cc(Cl)ccc23)C1)c1cccs1 (stereo unspecified)
The IFI of the first is lower: 0% for the first, 1.56% for the second.

First: CC(C)(C)NCCN(Cc1ccc(-c2ccc(C(F)(F)F)cc2)cc1)C(=O)Cn1c(CCc2cccc(F)c2F)nc(=O)c2c1CCC2
Second: C[C@H](NC(=O)C1CCCC1)C(=O)Nc1ccc(-c2ccc(-c3nc4cc(C(F)(F)F)ccc4[nH]3)cc2)cc1
The IFI of the first is higher: 10.9% for the first, 1.8% for the second.

Going from CCCCCc1cc(OC(=O)CCCN(CC)CC)c2c(c1)OC(C)(C)C=C2C1=CCN(Cc2ccc3ccccc3c2)CC1 to CCN(CC)CCOc1ccc(C(O)(C#CC(O)(c2ccc(C)cc2)c2ccc(OCCN(CC)CC)cc2)c2ccc(C)cc2)cc1 (stereo unspecified), the IFI falls from 15.9% to 8.09%.

First: Fc1ccc(C=NN=c2cc[nH]c3ccc(C(F)(F)F)cc23)cc1
Second: CCOc1ccc2nc(C)cc(N/N=C/c3cccc([N+](=O)[O-])c3)c2c1
The IFI of the first is lower: 0% for the first, 0.7% for the second.

Going from O=C(Nc1ccnc2ccccc12)NC1CCN(CCc2ccccc2)CC1 to CC(C)C[C@H](Nc1ccnc(NCC2CCCCC2)n1)C(=O)NCCc1ccccc1, the IFI rises from 1.44% to 8.89%.

Compared with CCc1ccc(S(=O)(=O)Nc2cccc(CCN3CCC(N4CCCCC4)CC3)c2)cc1, Cc1cc(C(=O)Nc2ccc3c(c2)CCN3C2CCN(Cc3cccc4cc[nH]c34)C2)no1 (stereo unspecified) is higher in IFI: 4.84% for the first, 6.25% for the second.

Going from COc1ccc(C2N=C(N)N=C(N)N2c2ccc(Cl)cc2)cc1OC (stereo unspecified) to CCc1nnc2sc(-c3cccc(NC(=O)c4ccc(OC)c(Cl)c4)c3)nn12, the IFI rises from 1.43% to 3.51%.

Going from CCOc1ccc2c(c1)N(C(=O)C=Cc1ccccc1)C(C)(C)c1ssc(=S)c1-2 to CCC1(CC)CN(c2ccccc2)c2ccc(O)cc2S(=O)(=O)C1CC(C)C (stereo unspecified), the IFI falls from 2.19% to 1.45%.

First: CCCNCc1ccc(-c2ccc(CN(CCOC)C(=O)CC3CCCC3=O)cc2)nc1 (stereo unspecified)
Second: CCCCCCOc1ccc(C(=O)NCCCC2CCCN(CCCCCNC(=O)C=Cc3ccc(Cl)c(Cl)c3)C2)cc1 (stereo unspecified)
The IFI of the first is lower: 0.69% for the first, 6.87% for the second.

First: Cc1c(C(=O)N2CCCC(C(F)(F)F)C2)sc2cccc(F)c12 (stereo unspecified)
Second: CC1CN(C(=O)c2sc3ccccc3c2Cl)CC(C)O1 (stereo unspecified)
The IFI of the first is higher: 2.94% for the first, -0% for the second.

Going from CC1CN(c2cnn(C/C=C/c3ccc(NC(=O)c4ccc5nonc5c4)cc3)c(=O)c2Cl)CC(C)N1 (stereo unspecified) to CCc1ccc(-n2c(NC(=O)c3ccccc3)nc3ccc(S(=O)(=O)NC(C)C(C)C)cc32)cc1 (stereo unspecified), the IFI falls from 7.59% to 3.85%.

First: O=C(NCCCCN1CCC(c2ccc3c(c2OC(=O)c2ccc(NC(=O)c4ccc(Cl)cc4)cc2)CCCC3)CC1)c1ccc(NC(=O)c2ccc(Cl)cc2)cc1
Second: N#Cc1ccc(-c2ccc(C(=O)NCCCCN3CCC(c4ccc5c(c4OCc4ccccn4)CCCC5)CC3)cc2)cc1
The IFI of the first is higher: 9.48% for the first, 5.5% for the second.

First: O=c1cc(NCCCNCc2cccc(Oc3ccccc3)c2)[nH]c2ccccc12
Second: CCOc1c(CNCCCNc2nc3ccccc3[nH]2)cc(Br)cc1OC
The IFI of the first is higher: 5.07% for the first, 0.71% for the second.

Going from CCc1cn2c3c(cc(C(=O)N[C@@H](Cc4ccccc4)[C@H](O)CNC4CCOCC4)cc13)N(CC(F)(F)F)S(=O)(=O)CC2 to CCNc1cc(C(=O)N[C@@H](Cc2ccccc2)[C@H](O)CNC(C)(C)CC(C)(C)C)c(F)c(N2CCCCS2(=O)=O)c1, the IFI falls from 3.68% to 0.74%.

Compared with Cc1ccc(NC(=O)Nc2ccc(I)c(OCCN(C)C)c2)cc1Cl, N=C(N)NC(=O)Nc1cc(Cl)c(Br)c(Cl)c1 is lower in IFI: 5.76% for the first, 5.65% for the second.

Going from CC(C)c1cc2c(cc1O)C(Cc1ccccc1Cl)N(C)CC2 (stereo unspecified) to CCNc1cc(C(=O)N[C@@H](Cc2ccccc2Cl)[C@H](O)CNC(C)CCCC(C)C)cc(N2CCCCS2(=O)=O)c1 (stereo partly specified), the IFI rises from 0.76% to 6.43%.

Going from COc1cc2c(c(OC)c1[N+](=O)[O-])C=CC1(O2)N(C)c2ccc([N+](=O)[O-])cc2C1(C)C (stereo unspecified) to COc1cc(N(C)Cc2cnc3nc(N)nc(N)c3n2)cc(OC)c1OC, the IFI rises from -0% to 5.71%.

First: CN(C)CCCN1CCN(C(=O)c2cccc(-c3noc(C(F)(F)F)n3)c2)CC1
Second: CSc1nc2nc(C)c(Cc3cccc(F)c3)c(C)n2n1
The IFI of the first is higher: 3.67% for the first, 0.65% for the second.

Compared with COc1ccc(Cc2c(C)nc3nc(N)nc(N)c3c2C)cc1, CN(c1ccc2c(c1)nc(Nc1cc(C(C)(C)C)on1)n2C)c1ccnc(Nc2ccc(CS(C)(=O)=O)cc2)n1 is higher in IFI: 2.21% for the first, 9.4% for the second.

Compared with Oc1cccc(-c2nc(-c3ccccc3)c(-c3ccc4oc5ccc(-c6[nH]c(-c7cccc(O)c7)nc6-c6ccccc6)cc5c4c3)[nH]2)c1, CC(=O)Nc1cccc(-c2cnc(N)c3cc(-c4ccc5c(c4)OCO5)ccc23)c1 is higher in IFI: 3.03% for the first, 13.3% for the second.

Compared with NS(=O)(=O)CCc1cccc(Nc2nccc(-c3c(-c4cccc(NC(=O)c5c(F)cccc5F)c4)nn4ccccc34)n2)c1, O=C(Nc1ccc2c(c1)CN(Cc1ccc(N3CCCC3)o1)CCC2)c1cncs1 is lower in IFI: 7.87% for the first, -0% for the second.

Compound NC(CC1CC(=O)N1CC(=O)O)C(=O)O (stereo unspecified) has an IFI of 1.43%.
